Test results published in the supplement of paper PMC9151546.
Most values come without repeats; read them as rough.

What was measured:
CHO-K1 [1] = test: relative survival (nuclei to bead ratio vs DMSO control) (% of vehicle control); higher = more surviving cells
CHO-K1 [2] = test: micronucleus frequency (% of nucleated events); higher = more micronuclei (genotoxic)
CHO-K1 [3] = test: hypodiploid nuclei frequency (% of nucleated events); higher = more hypodiploid events (aneugenic)
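Throughout, for hypodiploid nuclei frequency (% of nucleated events): hypodiploid nuclei gated on a flow cytometer with 488 nm excitation after SYTOX Green staining, cultures at 37 °C, positive controls vinblastine without S9 and cyclophosphamide with S9.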
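Throughout, for micronucleus frequency (% of nucleated events): cells lysed with nuclei stained by SYTOX Green, then micronucleus-gated events counted against nucleated events by flow cytometry with 488 nm excitation.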
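Throughout, for relative survival (nuclei to bead ratio vs DMSO control): Lysed-cell nuclei stained with SYTOX Green and counted against counting beads by flow cytometry at 488 nm excitation, with vinblastine (no S9) and cyclophosphamide (plus S9) as positive controls.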

CCCCC=O [Pentanal]
Settings	hypodiploid nuclei frequency, CHO-K1 [3] [%]	micronucleus frequency, CHO-K1 [2] [%]	relative survival, CHO-K1 [1]
concentration: 4.46 (µM), S9 metabolic activation: with S9, exposure time: 3-4 hours	0.3	1.9	148
concentration: 4.46 (µM), S9 metabolic activation: without S9, exposure time: 24 hours	0.76	2.84	101
concentration: 5.57 (µM), S9 metabolic activation: with S9, exposure time: 3-4 hours	0.24	1.9	159
concentration: 5.57 (µM), S9 metabolic activation: without S9, exposure time: 24 hours	0.62	2.12	91.4
concentration: 6.97 (µM), S9 metabolic activation: with S9, exposure time: 3-4 hours	0.28	1.88	146
concentration: 6.97 (µM), S9 metabolic activation: without S9, exposure time: 24 hours	0.6	1.82	115
concentration: 8.71 (µM), S9 metabolic activation: with S9, exposure time: 3-4 hours	0.42	2.08	138
concentration: 8.71 (µM), S9 metabolic activation: without S9, exposure time: 24 hours	0.6	2.04	101
concentration: 10.9 (µM), S9 metabolic activation: with S9, exposure time: 3-4 hours	0.32	2.04	120
concentration: 10.9 (µM), S9 metabolic activation: without S9, exposure time: 24 hours	0.62	3.12	96.3
concentration: 13.6 (µM), S9 metabolic activation: with S9, exposure time: 3-4 hours	0.32	2.16	128
concentration: 13.6 (µM), S9 metabolic activation: without S9, exposure time: 24 hours	0.54	1.56	111
concentration: 17 (µM), S9 metabolic activation: with S9, exposure time: 3-4 hours	0.38	1.7	117
concentration: 17 (µM), S9 metabolic activation: without S9, exposure time: 24 hours	0.74	2.08	85.8
concentration: 21.3 (µM), S9 metabolic activation: with S9, exposure time: 3-4 hours	0.22	1.5	103
concentration: 21.3 (µM), S9 metabolic activation: without S9, exposure time: 24 hours	0.86	2.34	95.8
concentration: 26.6 (µM), S9 metabolic activation: with S9, exposure time: 3-4 hours	0.4	2.5	148
concentration: 26.6 (µM), S9 metabolic activation: without S9, exposure time: 24 hours	0.56	2.66	118
concentration: 33.2 (µM), S9 metabolic activation: with S9, exposure time: 3-4 hours	0.4	1.88	133
concentration: 33.2 (µM), S9 metabolic activation: without S9, exposure time: 24 hours	0.6	2.28	112
concentration: 41.5 (µM), S9 metabolic activation: with S9, exposure time: 3-4 hours	0.28	1.44	112
concentration: 41.5 (µM), S9 metabolic activation: without S9, exposure time: 24 hours	0.44	2.3	94.4
concentration: 51.9 (µM), S9 metabolic activation: with S9, exposure time: 3-4 hours	0.3	1.22	118
concentration: 51.9 (µM), S9 metabolic activation: without S9, exposure time: 24 hours	0.94	2.46	106
concentration: 64.9 (µM), S9 metabolic activation: with S9, exposure time: 3-4 hours	0.22	1.56	128
concentration: 64.9 (µM), S9 metabolic activation: without S9, exposure time: 24 hours	0.66	2.34	107
concentration: 81.1 (µM), S9 metabolic activation: with S9, exposure time: 3-4 hours	0.18	0.98	106
concentration: 81.1 (µM), S9 metabolic activation: without S9, exposure time: 24 hours	0.78	2.94	107
concentration: 101 (µM), S9 metabolic activation: with S9, exposure time: 3-4 hours	0.14	0.9	109
concentration: 101 (µM), S9 metabolic activation: without S9, exposure time: 24 hours	0.96	3.66	117
concentration: 127 (µM), S9 metabolic activation: with S9, exposure time: 3-4 hours	0.22	1.24	97.7
concentration: 127 (µM), S9 metabolic activation: without S9, exposure time: 24 hours	0.9	2.52	96.3
concentration: 158 (µM), S9 metabolic activation: with S9, exposure time: 3-4 hours	0.12	1.06	90.7
concentration: 158 (µM), S9 metabolic activation: without S9, exposure time: 24 hours	0.88	2.88	91.8
concentration: 198 (µM), S9 metabolic activation: with S9, exposure time: 3-4 hours	0.48	2.46	103
concentration: 198 (µM), S9 metabolic activation: without S9, exposure time: 24 hours	1.4	2.16	89.3

Oc1ccccc1 [Phenol]
Settings	hypodiploid nuclei frequency, CHO-K1 [3] [%]	micronucleus frequency, CHO-K1 [2] [%]	relative survival, CHO-K1 [1]
concentration: 4.55 (µM), S9 metabolic activation: with S9, exposure time: 3-4 hours	0.16	1.02	127
concentration: 4.55 (µM), S9 metabolic activation: without S9, exposure time: 24 hours	0.5	1.38	119
concentration: 5.69 (µM), S9 metabolic activation: with S9, exposure time: 3-4 hours	0.18	0.88	104
concentration: 5.69 (µM), S9 metabolic activation: without S9, exposure time: 24 hours	0.78	1.34	121
concentration: 7.11 (µM), S9 metabolic activation: with S9, exposure time: 3-4 hours	0.12	0.9	120
concentration: 7.11 (µM), S9 metabolic activation: without S9, exposure time: 24 hours	0.58	1.16	112
concentration: 8.88 (µM), S9 metabolic activation: with S9, exposure time: 3-4 hours	0.22	1.04	122
concentration: 8.88 (µM), S9 metabolic activation: without S9, exposure time: 24 hours	0.88	1.06	113
concentration: 11.1 (µM), S9 metabolic activation: with S9, exposure time: 3-4 hours	0.22	0.96	123
concentration: 11.1 (µM), S9 metabolic activation: without S9, exposure time: 24 hours	0.96	1.16	104
concentration: 13.9 (µM), S9 metabolic activation: with S9, exposure time: 3-4 hours	0.28	1.14	113
concentration: 13.9 (µM), S9 metabolic activation: without S9, exposure time: 24 hours	1.2	1.32	107
concentration: 17.4 (µM), S9 metabolic activation: with S9, exposure time: 3-4 hours	0.38	1.04	110
concentration: 17.4 (µM), S9 metabolic activation: without S9, exposure time: 24 hours	1.18	1.34	110
concentration: 21.7 (µM), S9 metabolic activation: with S9, exposure time: 3-4 hours	0.34	0.82	112
concentration: 21.7 (µM), S9 metabolic activation: without S9, exposure time: 24 hours	1.4	1.18	108
concentration: 27.1 (µM), S9 metabolic activation: with S9, exposure time: 3-4 hours	0.28	0.7	101
concentration: 27.1 (µM), S9 metabolic activation: without S9, exposure time: 24 hours	0.74	1.52	100
concentration: 33.9 (µM), S9 metabolic activation: with S9, exposure time: 3-4 hours	0.24	0.8	105
concentration: 33.9 (µM), S9 metabolic activation: without S9, exposure time: 24 hours	1	1.24	125
concentration: 42.4 (µM), S9 metabolic activation: with S9, exposure time: 3-4 hours	0.4	1.12	136
concentration: 42.4 (µM), S9 metabolic activation: without S9, exposure time: 24 hours	0.98	1.24	117
concentration: 53 (µM), S9 metabolic activation: with S9, exposure time: 3-4 hours	0.32	0.66	105
concentration: 53 (µM), S9 metabolic activation: without S9, exposure time: 24 hours	1.02	1.06	108
concentration: 66.2 (µM), S9 metabolic activation: with S9, exposure time: 3-4 hours	0.28	0.94	102
concentration: 66.2 (µM), S9 metabolic activation: without S9, exposure time: 24 hours	0.88	1.52	115
concentration: 82.7 (µM), S9 metabolic activation: with S9, exposure time: 3-4 hours	0.18	0.96	93.4
concentration: 82.7 (µM), S9 metabolic activation: without S9, exposure time: 24 hours	1.28	1.5	98
concentration: 103 (µM), S9 metabolic activation: with S9, exposure time: 3-4 hours	0.14	1	109
concentration: 103 (µM), S9 metabolic activation: without S9, exposure time: 24 hours	1.3	1.9	93
concentration: 129 (µM), S9 metabolic activation: with S9, exposure time: 3-4 hours	0.24	0.98	106
concentration: 129 (µM), S9 metabolic activation: without S9, exposure time: 24 hours	1.42	1.7	126
concentration: 162 (µM), S9 metabolic activation: with S9, exposure time: 3-4 hours	0.34	1.1	116
concentration: 162 (µM), S9 metabolic activation: without S9, exposure time: 24 hours	1.58	1.74	101
concentration: 202 (µM), S9 metabolic activation: with S9, exposure time: 3-4 hours	0.14	1.1	90
concentration: 202 (µM), S9 metabolic activation: without S9, exposure time: 24 hours	1.64	2.28	89.5

O=C1OC(c2ccc(O)cc2)(c2ccc(O)cc2)c2ccccc21 [Phenolphthalein]
Settings	hypodiploid nuclei frequency, CHO-K1 [3] [%]	micronucleus frequency, CHO-K1 [2] [%]	relative survival, CHO-K1 [1]
concentration: 4.5 (µM), S9 metabolic activation: with S9, exposure time: 3-4 hours	0.24	1.04	126
concentration: 4.5 (µM), S9 metabolic activation: without S9, exposure time: 24 hours	0.9	1.22	120
concentration: 5.63 (µM), S9 metabolic activation: with S9, exposure time: 3-4 hours	0.1	0.78	119
concentration: 5.63 (µM), S9 metabolic activation: without S9, exposure time: 24 hours	0.72	0.96	106
concentration: 7.04 (µM), S9 metabolic activation: with S9, exposure time: 3-4 hours	0.3	1	115
concentration: 7.04 (µM), S9 metabolic activation: without S9, exposure time: 24 hours	0.74	0.96	112
concentration: 8.8 (µM), S9 metabolic activation: with S9, exposure time: 3-4 hours	0.24	1.16	134
concentration: 8.8 (µM), S9 metabolic activation: without S9, exposure time: 24 hours	1	1.14	112
concentration: 11 (µM), S9 metabolic activation: with S9, exposure time: 3-4 hours	0.18	1.32	108
concentration: 11 (µM), S9 metabolic activation: without S9, exposure time: 24 hours	0.74	1.24	117
concentration: 13.7 (µM), S9 metabolic activation: with S9, exposure time: 3-4 hours	0.14	0.84	163
concentration: 13.7 (µM), S9 metabolic activation: without S9, exposure time: 24 hours	0.46	1.18	100
concentration: 17.2 (µM), S9 metabolic activation: with S9, exposure time: 3-4 hours	0.22	1.36	128
concentration: 17.2 (µM), S9 metabolic activation: without S9, exposure time: 24 hours	0.68	1.1	116
concentration: 21.5 (µM), S9 metabolic activation: with S9, exposure time: 3-4 hours	0.2	1.46	122
concentration: 21.5 (µM), S9 metabolic activation: without S9, exposure time: 24 hours	0.68	0.94	84.3
concentration: 26.8 (µM), S9 metabolic activation: with S9, exposure time: 3-4 hours	0.34	1.22	138
concentration: 26.8 (µM), S9 metabolic activation: without S9, exposure time: 24 hours	1.3	1.26	81.4
concentration: 33.6 (µM), S9 metabolic activation: with S9, exposure time: 3-4 hours	0.42	1.2	150
concentration: 33.6 (µM), S9 metabolic activation: without S9, exposure time: 24 hours	1.98	2.32	75.4
concentration: 41.9 (µM), S9 metabolic activation: with S9, exposure time: 3-4 hours	0.38	1.42	118
concentration: 41.9 (µM), S9 metabolic activation: without S9, exposure time: 24 hours	6.24	4.86	88.1
concentration: 52.4 (µM), S9 metabolic activation: with S9, exposure time: 3-4 hours	0.64	1.36	105
concentration: 52.4 (µM), S9 metabolic activation: without S9, exposure time: 24 hours	20	14.1	65.5
concentration: 65.5 (µM), S9 metabolic activation: with S9, exposure time: 3-4 hours	0.4	1.1	95.3
concentration: 65.5 (µM), S9 metabolic activation: without S9, exposure time: 24 hours	–	–	38.8
concentration: 81.9 (µM), S9 metabolic activation: with S9, exposure time: 3-4 hours	0.36	1.46	90.7
concentration: 81.9 (µM), S9 metabolic activation: without S9, exposure time: 24 hours	–	–	31.5
concentration: 102 (µM), S9 metabolic activation: with S9, exposure time: 3-4 hours	0.48	1.68	75.3
concentration: 102 (µM), S9 metabolic activation: without S9, exposure time: 24 hours	–	–	37
concentration: 128 (µM), S9 metabolic activation: with S9, exposure time: 3-4 hours	0.34	1.46	84.7
concentration: 128 (µM), S9 metabolic activation: without S9, exposure time: 24 hours	–	–	38.3
concentration: 160 (µM), S9 metabolic activation: with S9, exposure time: 3-4 hours	0.76	3.48	57
concentration: 160 (µM), S9 metabolic activation: without S9, exposure time: 24 hours	–	–	35.5
concentration: 200 (µM), S9 metabolic activation: with S9, exposure time: 3-4 hours	–	–	30.1
concentration: 200 (µM), S9 metabolic activation: without S9, exposure time: 24 hours	–	–	38.8
